Drawing on PubChem BioAssay AID485344 (National Center for Advancing Translational Sciences (NCATS), 2010), this text covers inhibition for 61 molecules.

In all, about 340,000 compounds went through this assay and about 6,900 (2%) were called active. Cut-off read from the data, not from the text of the source: active = inhibition above about 30%; inactive = below that, where a call was filed. The list shows a part of the results, in another mix than the full data. The source gives no active or inactive call for entries shown without one.

Chain of UniProt P14416 (P14416 whole entry, looked up): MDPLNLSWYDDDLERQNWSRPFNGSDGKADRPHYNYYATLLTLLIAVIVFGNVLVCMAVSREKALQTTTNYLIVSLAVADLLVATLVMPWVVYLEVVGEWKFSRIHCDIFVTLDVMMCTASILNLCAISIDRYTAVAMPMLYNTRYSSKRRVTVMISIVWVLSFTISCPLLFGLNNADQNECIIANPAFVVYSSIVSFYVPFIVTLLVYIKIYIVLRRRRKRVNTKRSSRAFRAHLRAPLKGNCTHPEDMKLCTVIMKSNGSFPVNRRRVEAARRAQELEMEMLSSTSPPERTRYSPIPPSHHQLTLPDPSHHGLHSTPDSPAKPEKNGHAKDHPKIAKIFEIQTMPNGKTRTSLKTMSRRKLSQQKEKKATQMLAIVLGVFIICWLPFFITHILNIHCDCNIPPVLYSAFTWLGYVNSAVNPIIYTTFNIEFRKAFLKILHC

This assay has as its target D(2) dopamine receptor (Homo sapiens) (UniProt P14416). In words: HTS Assay for Allosteric Antagonists of the Human D2 Dopamine Receptor: Primary Screen for Antagonists. Note: 0% is about no effect. The note with it: HEK293 TREx D2 cells, calcium flux, dopamine EC80; at 10 µM; stronger effect = higher value. The method in brief:
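Dopamine at EC80 is the agonist stimulus; test compounds precede it by 180 s. Calcium flux read kinetically in a force-coupled, inducible HEK293 T-REx D2 cell line.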
(Calcium flux is commonly read through the fluorescence of an indicator in the cells.)
Regarding `CCN1C(=O)c2ccccc2Sc2ccc(NC(=O)c3ccc(C)c(F)c3)cc21`, the inhibition (as a rule, the relative decrease from the control value, in per cent) is -18.1%.
To `Cc1nc2cc(-c3cccc(F)c3)nn2c(C)c1CCC(=O)N1CCN(c2ccc(F)cc2)CC1` belongs 2.96%.
As for `O=C(Nc1cccc(Cl)c1)c1cc(S(=O)(=O)N2CCOCC2)cs1`, the inhibition is active: 34.8%.
Under `CCOC(=O)c1cccc(NC(=O)CC(c2ccc(F)cc2)N2Cc3ccccc3C2=O)c1` (stereo unspecified) stands 17.5%; under `CCOc1cc(C#N)c(NC(=O)c2ccc(OC)c(S(=O)(=O)N3CCCC3)c2)cc1OCC`, 1.97%; under `O=S(=O)(c1ccccc1)c1nc(-c2ccc(F)cc2)oc1N1CCOCC1`, 4.33%.
Under `O=C(c1nc(-c2ccc(Cl)cc2)n2c1CCCCC2)N1CCN(c2ccc(F)cc2)CC1` stands 5.34%; under `CCCOc1ccc(OC(=O)c2sc3ncn(Cc4cccc(F)c4)c(=O)c3c2C)cc1`, -11.3%; under `CS(=O)(=O)N(Cc1ccccc1)c1ccc(C(=O)NCC2CCCO2)cc1` (stereo unspecified), active: 32.8%.
To `COc1ccccc1NC(=O)N(Cc1ccco1)C1CCN(C(C)=O)CC1` belongs 4.63%.
`CCCCCn1c(=O)[nH]c2cc(C(=O)NCc3ccc(C)cc3)ccc2c1=O`: the inhibition worked out at 3.94%.
To `CCN1CCN(C(=O)Nc2ccc(OC)cc2OC)CC1` belongs active: 48.8%.
As to `NC(=O)CC(NC(=O)c1cccc(Br)c1)c1ccc(NCC2CC2)c([N+](=O)[O-])c1` (stereo unspecified), the inhibition is active: 37.7%.
To `CCOc1ccc(CCNC(=O)C2=C(C)C(=O)OC23CCC(C)CC3)cc1OCC` (stereo unspecified) belongs 7.28%; to `COc1cccc(NC(=O)CSc2nc(-c3ccccc3)nc3c2Cc2cc(Cl)ccc2O3)c1`, 0.134%.
As for `Cc1ccc(C(=O)c2oc3ccccc3c2NC(=O)c2nc(S(C)(=O)=O)ncc2Cl)cc1F`, the inhibition is 7.57%.
For `Cc1ccc(NC(=O)c2ccc3nc(Cc4ccccc4)oc3c2)cc1F`, the inhibition is -11.6%.
Consider `CCCCN(C)CCNC(=O)Cn1ncc2c3ccccc3n(CCC)c2c1=O`, for which the inhibition is -19.1%.
Under `COc1ccc(C)cc1N(C)C(=O)c1sc2nc3n(c(=O)c2c1C)CCCCC3` stands 5.17%; under `Cc1cccc(-c2noc(CN(C(=O)c3ccc(C)c(C)c3)C(C)C)n2)c1`, 2.57%.
Under `Cc1ccc(NC(=O)c2ncn(-c3ccccc3)n2)c(Cl)c1` stands 2.67%; under `Cc1csc2nc(-c3cccc(NC(=O)c4cccc(F)c4)c3)cn12`, -19%; under `CC1CCCCN1C(=O)CSc1nnc(-c2cccc(Cl)c2)o1` (stereo unspecified), 11.7%.
Under `Cc1ccc(Cl)cc1NC(=O)/C(C#N)=C/c1c(C)n(Cc2ccccc2)c2ccccc12` stands -2.26%; under `Fc1ccc(-c2csc(-c3nc(-c4ccc(Br)s4)cs3)n2)cc1`, -6.08%.
As to `C1CNCCNCCCNCCNC1`, the inhibition is active: 46.3%.
To `CCOc1ccc(NC(=O)CCCN2C(=O)C(c3ccccc3)Oc3cccnc32)cc1` (stereo unspecified) belongs 4.66%; to `Cc1ccc(-n2ncc(C(=O)NCc3cccs3)c2C2CCN(C(=O)OC(C)(C)C)CC2)cc1C`, 7.9%; to `Cc1cccc(C2N3CC4(C(C)C)CN2CC(C(C)C)(C3)C4=O)c1` (stereo unspecified), 12.8%.
With `CCOc1ccc(-c2cc3c(=O)n(CC(=O)Nc4c(C)cccc4C)ccn3n2)cc1`, the inhibition came to 8.83%.
Under `Cc1ccc2[nH]c(CSc3nnc(NC(=O)COc4ccccc4F)s3)cc(=O)c2c1` stands 1.24%.
With `Cc1cccc(Cn2c(CNS(=O)(=O)c3ccc(Cl)s3)nc3cccnc32)c1`, the inhibition is 9.74%.
As for `Cn1c(=O)oc2cc(S(=O)(=O)NCCC(=O)Nc3ccc(F)c(Cl)c3)ccc21`, the inhibition was -16%.
Consider `CC(C)CN(CCNC(=O)c1cc(=O)[nH]c2ccc(S(=O)(=O)N3CCCCCC3)cc12)CC(C)C`, for which the inhibition worked out at 4.74%.
To `CCc1ccc(CN(Cc2ccco2)C(=O)c2cc(-c3ccc(Cl)cc3)on2)cc1` belongs -7.54%; to `O=C(COC(=O)c1c(F)cccc1F)Nc1ccc2[nH]c(=O)[nH]c2c1`, active: 64.7%.
As to `COc1ccc2c(Sc3ccccc3)c(C(=O)NCCN(C)C)[nH]c2c1`, the inhibition is -17.8%.
For the molecule `CCOc1ccc(-c2nonc2NC(=O)c2ccccc2C)cc1`, the inhibition was -7.54%.
To `Cc1cc2c(cc1S(=O)(=O)Nc1cccc(C(F)(F)F)c1)OCCN2C` belongs 4.45%; to `Cc1ccc(Cl)cc1NC(=O)NC1COc2ccccc2C1` (stereo unspecified), -28%; to `CC(C)Oc1ccc(CNC(=O)Cc2ccc(NC(=O)N3CCSc4ncccc43)cc2)cc1`, 6.95%.
To `Cc1ccc2c(c1)c(=O)c(S(=O)(=O)c1ccc(F)cc1)cn2CC(=O)Nc1ccc2c(c1)OCO2` belongs 1.92%; to `Fc1ccccc1N1CCN(CC2CC3C=CC2C3)CC1` (stereo unspecified), active: 73.9%.
To `O=C(Cc1ccc(Cl)cc1)Nc1ccc2oc(-c3ccccc3)nc2c1` belongs -5.76%; to `CC(C)(C)C1CCc2c(sc(NC(=O)c3ccccc3F)c2C(=O)N2CCCCC2)C1` (stereo unspecified), 27.3%; to `CCOC(=O)N1CCC(Nc2c(Nc3ccc(C)c(C)c3)c(=O)c2=O)CC1`, active: 57%.
In the case of `CS(=O)(=O)c1ncc(N(Cc2ccccc2)Cc2ccco2)c(C(=O)Nc2cccc(C(F)(F)F)c2)n1`, the inhibition was found to be 1.26%.
Under `CC(C)Cn1c(=O)c2sccc2n2c(CCCC(=O)Nc3ccc(Cl)cc3)nnc12` stands 5.59%; under `CCOC(=O)c1c(NC(=O)c2cc(-c3ccccc3)on2)sc2c1CCCC2`, -4.34%.
For the molecule `O=C(NCCc1ccc(Cl)cc1)c1ccc2nc(Cc3ccccc3)oc2c1`, the inhibition amounted to 10.1%.
On to `O=C(CC1SC(N2CCCC2)=NC1=O)Nc1ccc(C(=O)NCCOc2ccccc2F)cc1` (stereo unspecified), for which the inhibition was active: 52.1%.
In the case of `Cc1cc(C)c(NC(=O)CSc2nc(=O)n(Cc3ccco3)c3c2CCC3)c(C)c1`, the inhibition was found to be 15.6%.
For the molecule `COc1cccc(-c2nc(SCc3cc(=O)c4cc(Cl)ccc4[nH]3)n[nH]2)c1`, the inhibition is 9.66%.
To `NC1=NC2(CCN(Cc3ccccc3)CC2)n2c(nc3ccccc32)N1` belongs active: 43.2%; to `Cc1cccc(N(CC(=O)NC(C)c2ccccc2)S(=O)(=O)c2ccccc2)c1C` (stereo unspecified), -9.28%.
Under `Cc1ccc(-c2nn3c(C)nnc3c3ccccc23)cc1S(=O)(=O)NCCO` stands 8.1%; under `CC(C)Cn1c(=O)c2ccccc2n2c(-c3ccc(Br)cc3)nnc12`, -12.5%.
`CCCCN(c1ccccc1)c1ncnc2c1cnn2-c1ccc(Cl)cc1`: the inhibition worked out at 21.6%.
To `COc1ccc(OC)c(CCNC(=O)CCn2c(=O)c3cccn3c3cccnc32)c1` belongs -7.98%; to `Cc1ccc(CN(Cc2ccco2)c2cnc(S(C)(=O)=O)nc2C(=O)Nc2ccc(Br)cc2)o1`, -5.95%.
Consider `Cc1cc(C)cc(C(=O)Nc2cc(C(F)(F)F)ccc2N2CCN(c3ccccc3)CC2)c1`, for which the inhibition is -2.62%.
